# Test results taken from article PMC12040169 (PLOS Biology, 2025).
# The list shows a part of the results.
# Tested on: T1, C. trachomatis L2/434/Bu expressing GFP (CTL2-GFP)
# T1 construct: L2/434/Bu GFP intracellular growth in HeLa cells
# Design: species or system HeLa; C. trachomatis total inclusion area by high-content imaging, normalised to DMSO
# Conditions: total inclusion area; 28.5 h, 10 µM; inhibitor
# Procedure, shortened: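 Post-fluorescence-read fixation, DNA staining with Hoechst and high-content imaging; GFP inclusion area and number per well, and nuclei counts, used as proxies for bacterial growth and host viability.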
row,SMILES,% of control remaining
1,CCc1c(C)nc2ccccc2c1SCCC(=O)O [CBK116382C],61.7319
2,CCCCOc1ccc(C=Cc2nc3sc(C(=O)O)c(C)c3c(=O)[nH]2)cc1 [CBK297524],83.479
3,O=C(NCc1ccc(F)cc1)[C@H]1CN2CCC1C[C@@H]2Cn1cc(C2(O)CCCC2)nn1 (stereo partly shown) [CBK289093],70.4906
4,COC(=O)c1cc(O)ccc1N [CBK002250],23.3429
5,CC(/C=C1\SC(=S)N(C(Cc2ccccc2)C(=O)O)C1=O)=C\c1ccccc1 (stereo not shown) [CBK263524],109.532
6,COc1ccc(OC)c(-c2ccc(NC(=O)c3ccc(Cl)cc3Cl)c(C(=O)O)c2)c1 [CBK000393D],108.023
7,O=C(CC1CCCCC1)N1CCN(c2ncccn2)CC1 [CBK144529],99.7216
8,CC(CC(=O)N1CCCC(c2cc3cccnc3[nH]2)C1)n1cccn1 (stereo not shown) [CBK284996],94.5766
9,COCC(=O)N[C@H]1C[C@H]2C(=O)Nc3ccc(Br)cc3C(=O)N2C1 [CBK289357],92.6789
10,S=C(NCCCN1CCOCC1)Nc1cccc(Cl)c1 [CBK263255],98.0441
11,O=C1Nc2ccc(-c3ccccc3F)cc2C(=O)N2CCN(C(=O)c3cccnc3)C[C@H]12 [CBK289591],76.4169
12,Cc1cc(C)n(CCN2CCC(N(C)Cc3nnc(C)n3C)C2)n1 (stereo not shown) [CBK304449],32.7521
13,COc1cc(CN2CCC(C(=O)NC(c3ccc(Cl)cc3)c3ccsc3)CC2)cc(OC)c1 (stereo not shown) [CBK147962],88.5232
14,CN(C(=O)c1cc(-c2cccs2)[nH]n1)c1ccccc1 [CBK288115],103.282
15,CC1CCc2c(C(=O)N3CCC4(C3)NC(=O)NC4=O)csc2C1 (stereo not shown) [CBK304290],95.6693
16,O=C(c1ccccc1)N1C[C@H](c2ccc(F)cc2)[C@H]2CN(CCc3ccccc3)CC[C@H]21 [CBK286291],127.248
17,O=C(Nc1nc2c(s1)CCCCC2)C1CN(C(=O)Cc2ccc(F)cc2)C1 [CBK285904],97.0159
18,COc1cc(CNc2nc(-c3cccc4ccccc34)cn3ccnc23)cc(OC)c1OC [CBK037397],127.242
19,COc1ccc(NC(=O)c2cnc3sc(C)cn3c2=O)c(OC)c1 [CBK287712],127.725
20,O=C(CCc1cccnc1)NC(Cc1ccsc1)c1nccs1 (stereo not shown) [CBK284665],127.937
21,CC12CN(Cc3ccccc3)CC1NC(=O)c1ccccc1C2N (stereo not shown) [CBK282850],77.3747
22,O=C(O)CC(NCc1ccco1)C(=O)Nc1cccc(F)c1 (stereo not shown) [CBK286910],52.2274
23,O=[N+]([O-])c1ccccc1OCCCn1cnc2ccccc21 [CBK267820G],50.9125
24,CC(C)(C)OC(=O)N1CCCC(C(=O)NC(C(N)=O)c2ccccc2)C1 (stereo not shown) [CBK305766],24.3631
25,FC(F)(F)c1cccc(OCc2nnn[nH]2)c1 [CBK269466],87.1299
26,O=C(O)c1cccc(NS(=O)(=O)CC(F)(F)F)c1 [CBK155712],89.1305

row,SMILES,% of control remaining
1,COc1ccc(CN2CCN(c3ccccc3F)CC2)cc1OCc1ccccc1 [CBK261900],98.9444
2,CCOc1cc(C)c(Cl)cc1S(=O)(=O)NCc1ccccn1 [CBK268047],95.3853
3,COC(=O)N1CCN(c2ccccc2)CC1 [CBK200414],92.9503
4,CN(C(=O)CN1C2CCC1CC(O)(c1ccco1)C2)C1CCCCC1 (stereo not shown) [CBK284108],82.313
5,COc1ccc(CCNC(=S)N2CCN(c3ccccn3)CC2)cc1OC [CBK266897],112.52
6,O=C1NC(c2cccnc2)Nc2sc3c(c21)CCCC3 (stereo not shown) [CBK072377],106.259
7,CC(C)(C)NC(=O)CN1C(=O)N2CCCN=C2c2ccccc21 [CBK284404],83.1638
8,CC1(OCCN2CCOCC2)SC(NC2CC3CCC2C3)=NC1=O (stereo not shown) [CBK116313],100.451
9,Cc1noc2nc(C3CCN(C(=O)C(C)C)CC3)cc(C(F)F)c12 [CBK285305],89.0602
10,CN1CCC(N[C@H]2C[C@@H](Cc3cc(CCO)on3)C2(C)C)CC1 [CBK289253],89.1519
11,CCOCc1ccc(C(=O)N2CCNC(=O)C2Cc2ccc(-c3cccs3)cc2)cc1 (stereo not shown) [CBK285811],70.1183
12,CCOC(=O)c1cccnc1-c1ccc(Cl)c(Cl)c1 [CBK149241],97.152
13,CC(=O)Nc1ccc(S(=O)(=O)N2CCN(C(=O)COc3ccc(Br)cc3)CC2)cc1 [CBK264234],130.956
14,O=C(Nc1cccc2[nH]ccc12)c1ccc(Cl)cc1 [CBK159632],89.2961
15,Cc1nonc1CN(C)C(=O)C1CC2C=CC1C21CC1 (stereo not shown) [CBK282076],90.4257
16,OCC(O)CN1CCCC1 (stereo not shown) [CBK015457],50.6665
17,Cc1nc(C)n(CCc2nc3ccccc3[nH]2)n1 [CBK269364],102.84
18,CC(C)/C=N/N=C1\NC(=O)CS1 [CBK023706],89.7946
19,O=C(c1c(F)cccc1Cl)N1CCN(Cc2ccc3c(c2)OCO3)CC1 [CBK074724],94.6747
20,c1ccc2cc(CCN3CCC(Oc4cncc(OCCN5CCOCC5)n4)C3)ccc2c1 (stereo not shown) [CBK084503],101.028
21,CC(C)[C@H](CO)n1c(=O)[nH]c2ncc(-c3ccc(OC(F)(F)F)cc3)nc21 [CBK065037],82.3034
22,O=C(Nc1ccccc1Cl)Nc1[nH]nc(O)c1Cc1c(Cl)cccc1Cl [CBK089367],86.6536
23,CNC(=O)CN(C)Cc1c(C(=O)N2CCOCC2)nc2c(C)cccn12 [CBK307128],86.7229
24,CCOc1cc(OCC)cc(C(=O)N2CCC3(CC2)CC(=O)c2cc(OCCN(C)C)ccc2O3)c1 [CBK169003T],70.5115
25,CC(NC(=O)CSCc1ccco1)c1ccccc1 (stereo not shown) [CBK283237],105.037
26,Cc1ccc(S(=O)(=O)N2CCC(C(=O)O)CC2)cc1C(=O)O [CBK266636],111.499
